According to PubChem BioAssay AID686978 (National Center for Advancing Translational Sciences (NCATS), 2013):
Several values for one entry are separate records, joined by “and”; a condition that tells them apart may be missing. Equal entries are not always repeated. About 64,000 (15%) of roughly 420,000 compounds were called active. This list was built around the results that the source calls inconclusive (neither active nor inactive); the mix of calls is not that of the screen. Calls follow the shape of the dose curve; as a rule, active = well fitted inhibition curve with a large enough effect; inconclusive = small, poorly fitted or top-dose-only effect; inactive = flat fitted curve, though single readings scatter. Where the call is inconclusive, the potency comes from a doubtful curve fit.

Assay: qHTS for Inhibitors of human tyrosyl-DNA phosphodiesterase 1 (TDP1): qHTS in cells in absence of CPT; also: nearly all actives have a fitted effect of over 55% in size
Details: DT40 Tdp1-/- hTDP1 cells, no CPT, ATP luminescence, 48 h; activity change, negative = growth inhibition: at 46.2 µM (top of the series) unless noted
In short: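 Stably hTDP1-transfected Tdp1-null chicken DT40 cells were treated with library compounds minus camptothecin and grown for at least 48 hr at 37 °C, after which cellular ATP was quantified by luminescence.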
% is scaled to controls: 0 for no effect and ±100 for the full control effect; potency is read from the fitted curve at half-maximal effect; tags tell the direction and shape of the fitted curve.

Row | Compound | Potency | activity change, negative = growth inhibition
1 | Cc1ccc(OCC(=O)N(C)CC(=O)Nc2ccc(Cl)c(C(F)(F)F)c2)c([N+](=O)[O-])n1 | inconclusive: 23.1 µM [inhibitor, single point] | 
2 | Cc1cccc(COC[C@H](Cc2ccccc2)N2CCN(C(=O)c3ccc(C(F)(F)F)cc3)CCC2=O)c1 | active: 18.4 µM | 
3 | CCN(CC)C(=O)Cn1cc(/C=C(\C#N)C(=O)N2CCN(c3ccccc3)CC2)c2ccccc21 | inconclusive: 23.1 µM [inhibitor, single point] | 
4 | O=C(CNc1cccc(C(F)(F)F)c1)N/N=C/c1cccc(Br)c1 | inconclusive: 29.1 µM [inhibitor, single point] | 
5 | O=C(NCCN1CCCCC1)c1ccc(Cn2c(SCc3cccc(F)c3)nc3cccnc32)cc1 | inconclusive: 29.1 µM [inhibitor, single point] | 
6 | O=C(CSc1nc2ccccc2s1)NNC(=S)Nc1ccc(Cl)cc1 | inconclusive: 29.1 µM [inhibitor, single point] | 
7 | CC1CCN(c2ccc(C(F)(F)F)cc2N)CC1 |  | inconclusive: -32.4% [inhibitor]
8 | COC(=O)c1ccc(CSc2nc3c(c(=O)[nH]2)CCC3)cc1 | active: 20.6 µM | 
9 | C[C@@H]1CN([C@@H](C)CO)C(=O)CCCn2nncc2CO[C@H]1CN(C)C(=O)C1CCCCC1 | inactive | 
10 | Cc1nn(C)c(C)c1/C=N/NC(=O)c1csc2ccccc12 | inactive | 
11 | COc1cc(-c2nc(-c3cccc(Cl)c3)c(-c3ccccc3)[nH]2)cc(OC)c1OC | active: 16.4 µM | 
12 | COc1ccc(OCC(=O)Nc2ccccc2C(=O)OCc2cc(=O)n3nc(C)sc3n2)cc1 | inconclusive: 16.4 µM [inhibitor, single point] | 
13 | CC(C)Cn1c2c(c(=O)[nH]c1=O)C(C(F)(F)F)(C(F)(F)F)N=C(CCC1CCCCC1)N2 | active: 4.11 µM | 
14 | Cc1cccc(-c2n[nH]c(=S)n2/N=C/c2ccc(C)s2)c1 | inconclusive: 23.1 µM [inhibitor, single point] | 
15 | O=C(Cc1ccccc1)N1CCN(c2ccc([N+](=O)[O-])cc2)CC1 | inconclusive: 16.4 µM [inhibitor, partial curve] | 
16 | CC(Oc1ccc(Cl)cc1C(N)=O)C(=O)N1CCc2ccccc21 (stereo unspecified) | inconclusive: 20.6 µM [inhibitor, partial curve] | 
17 | Cc1ccc(NC(=O)Cn2c(=O)n(Cc3ccc4c(c3)OCO4)c(=O)c3ccccc32)c(C)c1 | inactive | 
18 | O=C(NCC1COc2ccccc2O1)c1cc(S(=O)(=O)N2CCOCC2)c(Cl)cc1Cl (stereo unspecified) | inactive | 
19 | CCCCNC(=O)c1nc(C2CCN(S(=O)(=O)c3c(F)cccc3F)CC2)oc1-c1ccccc1 | active: 18.4 µM | 
20 | Cc1ccc2nc(N3CCN(c4cccc(C)c4C)CC3)c3nncn3c2c1 | inactive | 
21 | COc1ccc2cc(S(=O)(=O)N3CCCC(C)C3)ccc2c1 (stereo unspecified) | active: 23.1 µM | 
22 | C=CCNC(=S)Nc1ccc(OC(F)F)c(Cl)c1 | inconclusive: 16.4 µM [inhibitor, single point] | 
23 | Nc1ccccc1Sc1ccccc1[N+](=O)[O-] |  | inconclusive: -30.6% [inhibitor]
24 | O=C(NNC1=NS(=O)(=O)c2ccccc21)c1ccccc1 | inactive | 

Row | Compound | Potency | activity change, negative = growth inhibition
25 | COC(=O)c1ccc2nc(-c3ccc(C)cc3)c(Cc3cccc(Cl)c3)n2c1 | active: 16.4 µM | 
26 | CC(=O)N1CCc2cc(S(=O)(=O)NCCC(=O)N3CCN(c4ccccn4)CC3)ccc21 | inconclusive: 11.6 µM [inhibitor, partial curve] | 
27 | O=C(NCC1CCCCC1)c1csc([C@@H]2O[C@H](CO)[C@H](O)[C@H](O)[C@H]2O)n1 | inactive | 
28 | COc1ccc(C(=O)c2cn[nH]c2-c2ccc(C)cc2O)cc1 | inconclusive: 16.4 µM [inhibitor, single point] | 
29 | Cn1c(Cc2ccccc2)nnc1SCc1ccc(C(=O)O)cc1 | inactive | 
30 | Cc1cc(-c2ccccc2)nc(Cl)c1C#N | inactive | 
31 | CC1(Cc2cc(Cl)ccc2C(F)(F)F)C(=O)Nc2cc(C(F)(F)F)ccc21 (stereo unspecified) | active: 14.6 µM | 
32 | C=CC1=C(C(=O)O)N2C(=O)[C@@H](NC(=O)/C(=N\OCC(=O)O)c3csc(N)n3)[C@H]2SC1 | inactive | 
33 | O=C(NNC(=O)C12CC3CC(CC(C3)C1)C2)c1ccccc1O | active: 8.2 µM | 
34 | COC(=O)C[C@H]1c2cc(C(F)(F)F)ccc2S(=O)(=O)N1C(C)(C)C | inconclusive: 22.4 µM [inhibitor, single point] and inconclusive: 25.9 µM [inhibitor, single point] | 
35 | CC1(C)C2CCC(C2)C1(C)NC(=O)CNCc1cccs1 (stereo unspecified) | inconclusive: 29.1 µM [inhibitor, single point] | 
36 | CCOC(=O)c1ccc2c(c1)N(Cc1ccccc1)C(=O)c1ccccc1S2 | inconclusive: 20.6 µM [inhibitor, single point] | 
37 | CC1CCCC(NC(=O)c2nn(C)c3c2CS(=O)(=O)c2ccccc2-3)C1C (stereo unspecified) | active: 9.2 µM | 
38 | Cc1ccc(S(=O)(=O)N2CCOCC2)cc1C(=O)Nc1ccncc1 | inactive | 
39 | COc1cccc(-c2cc(C(=O)Nc3ccn(Cc4ccc(C)cc4)n3)no2)c1 | inconclusive: 4.11 µM [inhibitor, partial curve] | 
40 | CCC(CO)Oc1cc(NCc2cccc(Cl)c2)c2ncn(C(C)C)c2c1 (stereo unspecified) | inconclusive: 29.1 µM [inhibitor, single point] | 
41 | CC(=O)NCCN1C(=O)C2C3c4ccccc4C(c4ccccc43)C2C1=O (stereo unspecified) | inconclusive: 3.26 µM [inhibitor, partial curve, poor fit] | 
42 | NC(=S)NN=C(c1ccc(F)cc1)C1CC1 | inconclusive: 29.1 µM [inhibitor, single point] | 
43 | C=CCn1c(COc2ccccc2)nnc1SCC(=O)NCC(=O)OCC | inactive | 
44 | CCc1cc(SC#N)ccc1N | inconclusive: 20.6 µM [inhibitor, partial curve] | 
45 | O=C(Cc1ccccc1)NCCc1ccc(Cl)cc1Cl | inactive | 
46 | O=C(CCn1c(=O)sc2ccccc21)Nc1nc2ccccc2s1 | inconclusive: 25.9 µM [inhibitor, single point] | 
47 | O=C(Nc1cc(Cl)cc(Cl)c1)c1ccc(F)c(S(=O)(=O)NC2CCCCC2)c1 | inconclusive: 25.9 µM [inhibitor, single point] | 
48 | COc1cc(NC(=O)c2cc(Br)cc(C)c2OC)ccc1NC(=O)C(C)C | active: 23.1 µM | 

Row | Compound | Potency | activity change, negative = growth inhibition
49 | O=C(CCc1nnc2n(Cc3ccccc3)c(=O)c3ccccc3n12)NCCN1CCOCC1 | inconclusive: 10.3 µM [inhibitor, partial curve] | 
50 | CCC(=O)N/C(=N\OCc1ccc(F)cc1)c1nonc1NC(=O)CC | inactive | 
51 | O=C(N/N=C/c1c(-c2ccccc2)[nH]c2ccccc12)c1cccnc1 | active: 3.26 µM | 
52 | CCN(CC)c1ccc(NC(=O)c2ccco2)cc1 | inactive | 
53 | CN1C(=O)C(c2cn(C)c3ccccc23)(c2cn(C)c3ccccc23)c2cc(F)ccc21 | inconclusive: 20.6 µM [inhibitor, single point] | 
54 | CC(=O)c1c(C(C)=O)c(C)n(Cc2ccc3c(c2)OCO3)c1C | inconclusive: 18.4 µM [inhibitor, partial curve] | 
55 | O=S1(=O)C=C(SCc2ccc(Cl)c(Cl)c2)Nc2ccccc21 | inconclusive: 25.9 µM [inhibitor, single point] | 
56 | Cc1ccc(C(C)C)c(OCCN2CCc3ccccc3C2)c1 | inconclusive: 20.6 µM [inhibitor, single point] | 
57 | CCOC(=O)c1ccc(NC2c3ccccc3C(=O)N2c2ccc(C)cn2)cc1 (stereo unspecified) | inconclusive: 5.8 µM [inhibitor, full curve] | 
58 | CCn1nc(C)c(CCN(C)C(=O)Nc2cc(C)cc(C)c2)c1C | inconclusive: 14.6 µM [inhibitor, partial curve] | 
59 | Cn1c(NC(=O)C[n+]2cc(-c3ccc(Cl)cc3)n3c2CCC3)cc(=O)n(C)c1=O | inconclusive: 23.1 µM [inhibitor, single point] | 
60 | OCC1(CCc2ccccc2)CCN(Cc2c(F)ccc(F)c2F)CC1 | inconclusive: 29.1 µM [inhibitor, single point] | 
61 | CCOC(=O)c1c(NC(=S)NCC2CCCO2)sc(C)c1C (stereo unspecified) | inconclusive: 25.9 µM [inhibitor, single point] | 
62 | COc1ccc2nc(NC(=O)CSC3=NCCS3)sc2c1 | inconclusive: 29.1 µM [inhibitor, single point] | 
63 | Cc1ccc(S(=O)(=O)NN=C2C3CC4CC(C3)CC2C4)cc1 | inactive | 
64 | COc1cccc(CNC(=O)[C@@H]2CCCN2C(=O)[C@H]2CCCCN2C(=O)c2ccccc2C)c1 | inactive | 
65 | COc1ccc(-n2c(=O)c3c(c4cc(OC)ccc4n3C)n(Cc3ccc(F)cc3Cl)c2=O)cc1 | inconclusive: 3.66 µM [inhibitor, full curve, poor fit] | 
66 | Cc1ccccc1OCC1Cc2c(nc(N)c(C#N)c2N)O1 (stereo unspecified) |  | inconclusive: -31.9% [inhibitor]
67 | C=CCSC1=C(C#N)C(c2ccccc2C)CC(=O)N1 (stereo unspecified) | inactive | 
68 | O=C(Nc1ccc(C(=O)NCCCN2CCN(c3ccc(F)cc3)CC2)cc1)C1=CSCCO1 |  | inconclusive: -34.3% [inhibitor]
69 | Cn1c(CNC(=O)c2ccc(Cl)cc2)nnc1SCC(=O)NC1=NCCS1 | inconclusive: 23.1 µM [inhibitor, single point] | 
70 | CCc1ccc(CNC(=O)Cn2c(-c3cccs3)cc3cc(F)ccc32)cc1 | inconclusive: 1.64 µM [inhibitor, partial curve, poor fit] | 
71 | C=CCOc1ccc(C(=O)Nc2ccc3c(c2)n(C)c(=O)n3C)cc1 | inconclusive: 18.4 µM [inhibitor, partial curve] | 
